From PubChem BioAssay (NCI)
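A five-concentration, 48-hour dose response in 96-well plates underlies each endpoint, interpolated linearly between surrounding concentrations. GI50 marks 50% less growth. TGI: total growth inhibition.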

The compounds below were run on NCI-H322M lung (assay: inhibition of tumour cell growth, NCI panel, 48 h).
With `COc1cnc2c(c1)C(=O)c1c-2n(CCCNCC2CC2)c(=O)c2cc(F)ccc12` the GI50 was 1.14 µM and the TGI was 4.54 µM. In the case of `CC(=O)Nc1nc(C)c(-c2csc(Nc3ccccc3)n2)s1`, the GI50 is reported as 5.72 µM and the TGI is reported as 18.8 µM. With `CCCCCCCCNC(=O)c1ccc(Cn2c(CCCC)nc3c(N)nc4ccccc4c32)cc1` the GI50 was 3.11 µM and the TGI was 10.6 µM.
